# Data: the supplement of paper PMC8728848
# The list shows a part of the results.
# B1: B1567 (Bifidobacterium sp) (protein)
# chain: MKFTTAKKAVALTGAVAMLVSVAACGSDSGKSSQPAQDSDVKEITVWAWEPSLTQVAKDFEKETGIKVDLKNVGTNTKEYTQLDNAIEAGSGAPDVAQVEYYAVPQYAIKGNLLDITDKTSGYKDFYTPGPWASVQFAGKVYGLPMDSGPMAFFYNKEVFDKAGVDAEQIKTWDQYYDAAKKIHALGDNYYITSDTGDAGFFDSMTWLAGAKPFQTSSDGSEVTVNLTEDKGVKTFTDFWQKLLDEGLLDTKTAGWSEDWFKGMVDGTIASLFTGAWMPANLANSAADGAGKWRVTQMPTADGSTTNSENGGSSLAVLASTKKADAAYQFIEYANHGAGVATRVAGGAFPADKASLEKDSFKNATTVKNADGQDVDYFGGQKYNEVLAQAAENVSSGYQFLPFEVKARTIFGDYFGKSYTGDQKLSDGVAAWQKALQDYGKDQGFTVK
# Legend:
# Test in all cases: glycan array binding signal (z-score within array); higher = stronger binding
# Settings in all cases: glycan notation: IUPAC condensed, linker removed
# [1] = target: Neu5Ac(a2-3)Gal(b1-3)]Neu5Ac(a2-3)Gal(b1-4)]GlcNAc
# Procedure, shortened: (§1)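 Glycan array data were curated from 3228 arrays in the Consortium for Functional Glycomics database and kept only where the protein sequence was available. Glycan names were converted to IUPAC-condensed notation, and columns mapping to the same glycan were averaged. The binding signal is a within-array Z-score, averaged across arrays of the same protein sequence at different concentrations or buffers and across linkers. Negative Z-scores can be read as non-binding.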
# Neu5Ac(a2-3)Gal(b1-4)Glc = target: Neu5Ac(a2-3)Gal(b1-4)Glc
# Procedure, shortened: as §1
# [2] = target: Neu5Ac(a2-3)Gal(b1-4)GlcNAc
# Procedure, shortened: as §1
# [3] = target: Neu5Ac(a2-3)Gal(b1-4)GlcNAc(b1-2)Man
# Procedure, shortened: as §1
# [4] = target: Neu5Ac(a2-3)Gal(b1-4)GlcNAc(b1-2)Man(a1-3)[GlcNAc(b1-4)][Neu5Ac(a2-3)Gal(b1-4)GlcNAc(b1-2)Man(a1-6)]Man(b1-4)GlcNAc(b1-4)GlcNAc
# Procedure, shortened: as §1
# [5] = target: Neu5Ac(a2-3)Gal(b1-4)GlcNAc(b1-2)Man(a1-3)[Neu5Ac(a2-3)Gal(b1-4)GlcNAc(b1-2)Man(a1-6)]Man(b1-4)GlcNAc(b1-4)GlcNAc
# Procedure, shortened: as §1
# [6] = target: Neu5Ac(a2-3)Gal(b1-4)GlcNAc(b1-2)Man(a1-3)[Neu5Ac(a2-3)Gal(b1-4)GlcNAc(b1-2)Man(a1-6)]Man(b1-4)GlcNAc(b1-4)[Fuc(a1-6)]GlcNAc
# Procedure, shortened: as §1
# [7] = target: Neu5Ac(a2-3)Gal(b1-4)GlcNAc(b1-2)Man(a1-3)[Neu5Ac(a2-6)Gal(b1-4)GlcNAc(b1-2)Man(a1-6)]Man(b1-4)GlcNAc(b1-4)GlcNAc
# Procedure, shortened: as §1
# [8] = target: Neu5Ac(a2-3)Gal(b1-4)GlcNAc(b1-2)[Neu5Ac(a2-3)Gal(b1-4)GlcNAc(b1-4)]Man(a1-3)[GlcNAc(b1-4)][Neu5Ac(a2-3)Gal(b1-4)GlcNAc(b1-2)[Neu5Ac(a2-3)Gal(b1-4)GlcNAc(b1-6)]Man(a1-6)]Man(b1-4)GlcNAc(b1-4)GlcNAc
# Procedure, shortened: as §1
# [9] = target: Neu5Ac(a2-3)Gal(b1-4)GlcNAc(b1-2)[Neu5Ac(a2-3)Gal(b1-4)GlcNAc(b1-4)]Man(a1-3)[GlcNAc(b1-4)][Neu5Ac(a2-3)Gal(b1-4)GlcNAc(b1-4)Man(a1-6)]Man(b1-4)GlcNAc(b1-4)GlcNAc
# Procedure, shortened: as §1
# [10] = target: Neu5Ac(a2-3)Gal(b1-4)GlcNAc(b1-2)[Neu5Ac(a2-3)Gal(b1-4)GlcNAc(b1-6)]Man(a1-6)[Neu5Ac(a2-3)Gal(b1-4)GlcNAc(b1-2)Man(a1-3)][GlcNAc(b1-4)]Man(b1-4)GlcNAc(b1-4)GlcNAc
# Procedure, shortened: as §1
# [11] = target: Neu5Ac(a2-3)Gal(b1-4)GlcNAc(b1-3)Gal
# Procedure, shortened: as §1
# [12] = target: Neu5Ac(a2-3)Gal(b1-4)GlcNAc(b1-3)Gal(b1-3)GlcNAc
# Procedure, shortened: as §1
# [13] = target: Neu5Ac(a2-3)Gal(b1-4)GlcNAc(b1-3)Gal(b1-4)GlcNAc
# Procedure, shortened: as §1
# [14] = target: Neu5Ac(a2-3)Gal(b1-4)GlcNAc(b1-3)Gal(b1-4)GlcNAc(b1-2)Man(a1-3)[Neu5Ac(a2-3)Gal(b1-4)GlcNAc(b1-3)Gal(b1-4)GlcNAc(b1-2)Man(a1-6)]Man(b1-4)GlcNAc(b1-4)GlcNAc
# Procedure, shortened: as §1
# [15] = target: Neu5Ac(a2-3)Gal(b1-4)GlcNAc(b1-3)Gal(b1-4)GlcNAc(b1-3)Gal(b1-4)GlcNAc
# Procedure, shortened: as §1
# [16] = target: Neu5Ac(a2-3)Gal(b1-4)GlcNAc(b1-3)Gal(b1-4)GlcNAc(b1-3)Gal(b1-4)GlcNAc(b1-2)Man(a1-3)[Neu5Ac(a2-3)Gal(b1-4)GlcNAc(b1-3)Gal(b1-4)GlcNAc(b1-3)Gal(b1-4)GlcNAc(b1-2)Man(a1-6)]GalNAc
# Procedure, shortened: as §1
# [17] = target: Neu5Ac(a2-3)Gal(b1-4)GlcNAc(b1-3)Gal(b1-4)GlcNAc(b1-3)GalNAc
# Procedure, shortened: as §1
# [18] = target: Neu5Ac(a2-3)Gal(b1-4)GlcNAc(b1-3)Gal(b1-4)GlcNAc(b1-3)[Neu5Ac(a2-3)Gal(b1-4)GlcNAc(b1-3)Gal(b1-4)GlcNAc(b1-6)]GalNAc
# Procedure, shortened: as §1
# [19] = target: Neu5Ac(a2-3)Gal(b1-4)GlcNAc(b1-3)Gal(b1-4)GlcNAc(b1-6)[Gal(b1-3)]GalNAc
# Procedure, shortened: as §1
# [20] = target: Neu5Ac(a2-3)Gal(b1-4)GlcNAc(b1-3)Gal(b1-4)[Fuc(a1-3)]GlcNAc
# Procedure, shortened: as §1
# [21] = target: Neu5Ac(a2-3)Gal(b1-4)GlcNAc(b1-3)GalNAc
# Procedure, shortened: as §1
# [22] = target: Neu5Ac(a2-3)Gal(b1-4)GlcNAc(b1-3)[Neu5Ac(a2-3)Gal(b1-4)GlcNAc(b1-6)]GalNAc
# Procedure, shortened: as §1
# [23] = target: Neu5Ac(a2-3)Gal(b1-4)GlcNAc(b1-6)GalNAc
# Procedure, shortened: as §1
# [24] = target: Neu5Ac(a2-3)Gal(b1-4)GlcNAc(b1-6)[Gal(b1-3)]GalNAc
# Procedure, shortened: as §1
# [25] = target: Neu5Ac(a2-3)Gal(b1-4)GlcNAc(b1-6)[Neu5Ac(a2-3)Gal(b1-3)]GalNAc
# Procedure, shortened: as §1
# [26] = target: Neu5Ac(a2-3)Gal(b1-4)GlcNAc6S
# Procedure, shortened: as §1
# [27] = target: Neu5Ac(a2-3)Gal(b1-4)[Fuc(a1-3)]GlcNAc
# Procedure, shortened: as §1
# [28] = target: Neu5Ac(a2-3)Gal(b1-4)[Fuc(a1-3)]GlcNAc(b1-2)Man
# Procedure, shortened: as §1
# [29] = target: Neu5Ac(a2-3)Gal(b1-4)[Fuc(a1-3)]GlcNAc(b1-3)Gal
# Procedure, shortened: as §1
# [30] = target: Neu5Ac(a2-3)Gal(b1-4)[Fuc(a1-3)]GlcNAc(b1-3)Gal(b1-4)GlcNAc
# Procedure, shortened: as §1
# [31] = target: Neu5Ac(a2-3)Gal(b1-4)[Fuc(a1-3)]GlcNAc(b1-3)Gal(b1-4)[Fuc(a1-3)]GlcNAc(b1-3)Gal(b1-4)[Fuc(a1-3)]GlcNAc
# Procedure, shortened: as §1
# [32] = target: Neu5Ac(a2-3)Gal(b1-4)[Fuc(a1-3)]GlcNAc(b1-3)GalNAc
# Procedure, shortened: as §1
# [33] = target: Neu5Ac(a2-3)Gal(b1-4)[Fuc(a1-3)]GlcNAc(b1-6)[Gal(b1-3)]GalNAc
# Procedure, shortened: as §1
# [34] = target: Neu5Ac(a2-3)Gal(b1-4)[Fuc(a1-3)]GlcNAc(b1-6)[Neu5Ac(a2-3)Gal(b1-3)]GalNAc
# Procedure, shortened: as §1
# [35] = target: Neu5Ac(a2-3)Gal(b1-4)[Fuc(a1-3)]GlcNAc6S
# Procedure, shortened: as §1
# [36] = target: Neu5Ac(a2-3)Gal6S(b1-4)GlcNAc
# Procedure, shortened: as §1
# [37] = target: Neu5Ac(a2-3)Gal6S(b1-4)[Fuc(a1-3)]GlcNAc
# Procedure, shortened: as §1
binder,measurement,setting,value
B1,glycan array binding signal (z-score),[1],-0.078
same,glycan array binding signal (z-score),Neu5Ac(a2-3)Gal(b1-4)Glc,-0.075
same,glycan array binding signal (z-score),[2],-0.097
same,glycan array binding signal (z-score),[3],0.005
same,glycan array binding signal (z-score),[4],-0.097
same,glycan array binding signal (z-score),[5],-0.149
same,glycan array binding signal (z-score),[6],-0.063
same,glycan array binding signal (z-score),[7],-0.092
same,glycan array binding signal (z-score),[8],-0.117
same,glycan array binding signal (z-score),[9],-0.119
same,glycan array binding signal (z-score),[10],-0.095
same,glycan array binding signal (z-score),[11],-0.127
same,glycan array binding signal (z-score),[12],-0.129
same,glycan array binding signal (z-score),[13],-0.037
same,glycan array binding signal (z-score),[14],-0.003
same,glycan array binding signal (z-score),[15],-0.128
same,glycan array binding signal (z-score),[16],0.089
same,glycan array binding signal (z-score),[17],-0.191
same,glycan array binding signal (z-score),[18],0.001
same,glycan array binding signal (z-score),[19],-0.13
same,glycan array binding signal (z-score),[20],-0.145
same,glycan array binding signal (z-score),[21],-0.027
same,glycan array binding signal (z-score),[22],-0.09
same,glycan array binding signal (z-score),[23],-0.088
same,glycan array binding signal (z-score),[24],-0.096
same,glycan array binding signal (z-score),[25],-0.097
same,glycan array binding signal (z-score),[26],-0.084
same,glycan array binding signal (z-score),[27],-0.082
same,glycan array binding signal (z-score),[28],-0.132
same,glycan array binding signal (z-score),[29],-0.124
same,glycan array binding signal (z-score),[30],-0.046
same,glycan array binding signal (z-score),[31],-0.073
same,glycan array binding signal (z-score),[32],0.075
same,glycan array binding signal (z-score),[33],0.179
same,glycan array binding signal (z-score),[34],-0.104
same,glycan array binding signal (z-score),[35],-0.166
same,glycan array binding signal (z-score),[36],-0.141
same,glycan array binding signal (z-score),[37],-0.1
